Out of some 310,000 compounds screened, about 14,000 (4.5%) showed an effect of 50% or more. Effects have a minus sign here. The list shows a part of the results.
target: human ether-à-go-go-related gene (hERG) potassium channel (human, UniProt Q12809); test: primary screen, population patch clamp on CHO cells stably expressing hERG
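Further: peak tail current of the secondary pulse compared with the same well before compound.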

Sequence of human ether-à-go-go-related gene (hERG) potassium channel (Q12809 whole entry, looked up): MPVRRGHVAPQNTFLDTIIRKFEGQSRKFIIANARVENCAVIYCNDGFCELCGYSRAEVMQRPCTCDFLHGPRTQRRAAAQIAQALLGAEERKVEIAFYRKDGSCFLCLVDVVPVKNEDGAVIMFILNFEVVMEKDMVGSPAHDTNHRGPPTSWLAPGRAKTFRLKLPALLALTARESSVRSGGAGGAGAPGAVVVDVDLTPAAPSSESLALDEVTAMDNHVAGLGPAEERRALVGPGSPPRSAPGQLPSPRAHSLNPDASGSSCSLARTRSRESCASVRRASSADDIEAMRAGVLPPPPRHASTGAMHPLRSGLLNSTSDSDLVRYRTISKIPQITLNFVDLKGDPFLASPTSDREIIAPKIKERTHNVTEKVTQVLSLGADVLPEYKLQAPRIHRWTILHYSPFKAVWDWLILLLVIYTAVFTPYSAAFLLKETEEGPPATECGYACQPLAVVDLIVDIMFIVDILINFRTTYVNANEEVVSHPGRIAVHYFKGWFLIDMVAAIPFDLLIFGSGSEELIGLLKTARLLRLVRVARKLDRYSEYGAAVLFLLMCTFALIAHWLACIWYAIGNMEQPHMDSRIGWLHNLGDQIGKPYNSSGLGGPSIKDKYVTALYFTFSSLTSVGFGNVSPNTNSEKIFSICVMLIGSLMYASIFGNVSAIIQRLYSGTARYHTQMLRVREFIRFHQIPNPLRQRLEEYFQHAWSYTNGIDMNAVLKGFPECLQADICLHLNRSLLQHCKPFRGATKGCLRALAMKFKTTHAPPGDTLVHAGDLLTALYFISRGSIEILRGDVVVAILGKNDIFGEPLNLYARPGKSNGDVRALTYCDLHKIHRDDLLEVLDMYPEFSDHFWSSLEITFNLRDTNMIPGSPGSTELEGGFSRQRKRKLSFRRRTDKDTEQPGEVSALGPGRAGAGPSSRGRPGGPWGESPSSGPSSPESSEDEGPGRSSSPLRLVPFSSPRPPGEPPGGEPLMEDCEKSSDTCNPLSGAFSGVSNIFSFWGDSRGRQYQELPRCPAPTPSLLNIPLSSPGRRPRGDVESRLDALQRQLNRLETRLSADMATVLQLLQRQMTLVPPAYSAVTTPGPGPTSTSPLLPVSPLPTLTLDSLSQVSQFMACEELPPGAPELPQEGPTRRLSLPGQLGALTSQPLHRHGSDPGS

In order of rising “hERG current change (%, negative = inhibition) at 10uM” value:
1. Cc1cc(C)c(C)c(S(=O)(=O)Nc2ccccc2C(=O)NCCCN2CCOCC2)c1C  -88.5%
2. CCCCN(C)C(=S)Nc1ccc2nc(N3CCN(CC)CC3)cc(C)c2c1  -78.9%
3. CC(=O)Nc1ccc(NC(=O)C(C)Oc2ccccc2C(=O)NCc2ccccc2)cc1 (stereo not drawn)  -46.9%
4. CCN1CCN(C(CNS(=O)(=O)c2ccccc2)c2cccnc2)CC1 (stereo not drawn)  -39.2%
5. CC(C)CC(c1nnnn1Cc1ccco1)N1CCN(C2CCCC2)CC1.Cl (stereo not drawn)  -38.1%
6. CCN(Cc1nc2ccccc2c(=O)[nH]1)C(=O)c1cc(C2CC2)nn1-c1ccccc1  -34%
7. O=C(NCCNc1ccc(Cl)cc1[N+](=O)[O-])c1cccnc1  -29.4%
8. Cc1cc(F)ccc1S(=O)(=O)Nc1ccc(C(=O)N(C)Cc2ccco2)cc1  -28%
9. Cc1cc(CNC(=O)COc2ccc([N+](=O)[O-])cc2)c2ccccc2n1  -25.1%
10. Cc1c(OC(C)C(=O)NCc2ccccn2)ccc2c3c(c(=O)oc12)CCCC3 (stereo not drawn)  -23%
11. O=C(CN1CCN(Cc2cccc(F)c2)CC1)NCc1ccccc1  -10.4%
12. CCC(C(=O)Nc1ncn[nH]1)(C(F)(F)F)C(F)(F)F  -10.3%
13. Cc1ccccc1-n1c(C)cc(/C=C2\NC(=O)NC2=O)c1C  -8.57%
14. CCc1cc(=O)oc2cc(OCC(N)=O)c(Cl)cc12  -8.39%
15. CCCCN(CCCC)Cc1ccc(N)cc1  -7.82%
16. Cc1ccc(NC(=O)Cn2cnc3c(=O)n(C)c(=O)n(C)c32)c(C)c1  -7.57%
17. N#Cc1ccc(/C=N/NC(=O)c2cc(-c3cccs3)nc3ccccc23)cc1  -5.7%
18. Cn1c(O)c(C(=N)COc2cccc(Cl)c2)c(=O)n(C)c1=O  -3.94%
19. Cc1ncn(C23CC4CC(CC(O)(C4)C2)C3)n1  -2.28%
20. O=C(Nc1ccc(OC(F)(F)F)cc1)c1ccc2c(c1)no[n+]2[O-]  -1.27%
21. c1ccc(N/N=C2\CCCc3ccccc32)nc1  1.09%
22. O=C1c2ccccc2C(=O)N1c1ccc(Cl)cn1  1.29%
23. COC(=O)COc1ccc(S(=O)(=O)N2CCc3ccccc3C2)cc1  1.72%
24. CC(C)Cn1c(N)c(C(=O)NCc2cccs2)c2nc3ccccc3nc21  1.87%
25. Cc1ccc(CN2C(=O)CCC2C(=O)NCCCN2CCCC(C)C2)cc1 (stereo not drawn)  1.99%
26. CCOC(=O)Cn1cnc2scc(-c3ccc(C)cc3)c2c1=O  2.29%
27. CC(C)N(CCNC(=O)c1ccc(OCC2CCCO2)cc1)C(C)C (stereo not drawn)  4.98%
28. CN(C(=O)C(Cl)Cl)C1CC2C=CC1C2 (stereo not drawn)  5.29%
29. C=CCc1cccc(/C=N/NC(=O)C(C)Nc2cccc(C)c2)c1O (stereo not drawn)  6.12%
30. COc1cccc2c(O)cc(=O)n(C)c12  6.9%
31. O=C(Cc1ccc(S(=O)(=O)N2CCOCC2)s1)Oc1ccc(F)cc1  7.19%
32. Cn1cc(Cl)c(C(=O)OCC(=O)Nc2ccccc2)n1  7.38%
33. CCCC/C(O)=C1\C(=O)CC(C)(C)CC1=NCCCCCC(=O)O  7.59%
34. COc1ccc(Oc2nnc(-c3ccccc3)cc2C#N)cc1  7.69%
35. Nc1ccccc1C(=O)OC1CSC1  10.9%
36. CCCN(CCC)Cc1c(C(=O)N/N=C/C(C)=C\c2ccccc2)nnn1-c1nonc1N  11.6%
37. Cc1nnc(N/N=C/c2cc([N+](=O)[O-])c(N3CCC(C)CC3)cc2N2CCC(C)CC2)n1N.Cl  15.6%
38. Cc1ccc(S(=O)(=O)N2CCN(C(C)CC(=O)O)CC2)cc1 (stereo not drawn)  16.4%
39. Nc1c(C(=O)c2ccccc2)sc2nsc(SCCN3CCOCC3)c12  18.1%
40. CC(C)CCn1c(N2CCOCC2)nc2c1c(=O)n(CC(N)=O)c(=O)n2C  19.5%
41. CCCOC(=O)Nc1nc2ccccc2o1  19.5%
42. O=C(Cc1ccccc1)Nc1ccc(NC(=O)c2cccnc2)cc1  20.3%
43. NC(=O)c1cc[n+](CC2=C(C(=O)[O-])N3C(=O)[C@@H](NC(=O)C(c4ccccc4)S(=O)(=O)[O-])[C@H]3SC2)cc1.[Na+] (stereo partly drawn)  20.3%
44. Cc1nnc(N/N=C\c2ccc(-c3cccc(C(=O)O)c3)o2)n1N.Cl  29.3%
45. O=C(Nc1ccc2ccccc2c1)c1ccc(Cl)cc1Cl  31%

— publication PMC4336329 (PLoS ONE, 2015)
